Data reported in article PMC10726135.
The list shows a part of the results. At the low end of the ranking the order means little. The protein was read in a cell extract, so binding may be indirect.

What follows are sequences tested against T1, HNF4alpha8 (COS-7 nuclear extract) (UniProt P41235-5) (assay: protein-binding microarray). Conditions: COS-7 nuclear extract on double-stranded Agilent 4x180k PBM; binding buffer, salt, pH and temperature not given; high values mean tight binding; double strand, one strand shown; sequences stand for … in …GCCTAGGGAGATTAGAGTATCGGTCGA.
T1 sequence: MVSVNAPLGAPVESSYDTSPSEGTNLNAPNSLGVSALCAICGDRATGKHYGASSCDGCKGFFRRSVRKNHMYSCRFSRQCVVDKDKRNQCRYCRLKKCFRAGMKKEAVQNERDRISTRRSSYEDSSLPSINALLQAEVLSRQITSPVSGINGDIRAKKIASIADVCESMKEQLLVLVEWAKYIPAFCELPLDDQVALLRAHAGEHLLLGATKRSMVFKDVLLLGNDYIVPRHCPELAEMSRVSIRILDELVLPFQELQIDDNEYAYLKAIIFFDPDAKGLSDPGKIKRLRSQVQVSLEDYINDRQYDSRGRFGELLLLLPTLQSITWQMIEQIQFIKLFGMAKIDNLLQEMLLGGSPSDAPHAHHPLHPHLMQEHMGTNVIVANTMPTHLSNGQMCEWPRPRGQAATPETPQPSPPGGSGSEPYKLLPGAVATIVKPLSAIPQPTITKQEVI
In the case of ACCCAAGGGATGGCATCACCTTTGGTCAGC, the binding signal (log2 normalized intensity) is reported as 4.43. Sequence ATTGACAAAGACCAGTGCTCTTTCTTCTCT has a binding signal (log2 normalized intensity) of -1.16. TGCCTGTGTGTTCTGCTATTCATTACAGAT showed a binding signal (log2 normalized intensity) of 1.41. ATTAATCAAGGCTGCCTGGCAGGGTGGGGT showed a binding signal (log2 normalized intensity) of -1.02. TTACTAAAGTTAGAATGTGCTGGATGTTTC gave a binding signal (log2 normalized intensity) of 0.724. With ATGGGTCTGGGATGTTGGGAGGAGTGGACT the binding signal (log2 normalized intensity) was 2.82. For CTTAGGCCTCCCAGAACGTGGCCTTTAATC, the binding signal (log2 normalized intensity) was 2.89. For TAAAGATATGGAACACTTTCAGAGAGATTG, the binding signal (log2 normalized intensity) was -1.03. TAGCGAGGCGGAAGTAAGGCGGAAGTACTG showed a binding signal (log2 normalized intensity) of -1.24. CTGTGATCTGGATTTTCAGGTTCCCCAGTG was tested, and the binding signal (log2 normalized intensity) was 1.94. Work on TGGGCTTTAGGTTTGGTGTTTAATTTTCAA yielded a binding signal (log2 normalized intensity) of 1.44. GAGCACATTCCTGCACCATAACCCTCAGCT was tested, and the binding signal (log2 normalized intensity) was -1.26. Work on GGCGTTGACTGATCCCTCTGGAGGCTCTCT yielded a binding signal (log2 normalized intensity) of -1.12. GAATAAATACATAAAGTCCAAACCCCTATG was tested, and the binding signal (log2 normalized intensity) was 2.22. TCCTTTTGACCACAGTTATCTCCCCAGCTT gave a binding signal (log2 normalized intensity) of 2.38. AACTTACGCACATTACTTTGATTGGAAAAA showed a binding signal (log2 normalized intensity) of -0.15. ATGTCACAGGGATTACGATCCTGCCCTTCT gave a binding signal (log2 normalized intensity) of 2.22. Work on ACGGTTTCGTGGGGACCCAGGCTTGCAAAG yielded a binding signal (log2 normalized intensity) of -1.45. Work on CTGGACAGAGATAAGGTAGGCACGTAAATA yielded a binding signal (log2 normalized intensity) of -1.38. Work on ATCTCACACAGTACTTTGTACATGGGAATA yielded a binding signal (log2 normalized intensity) of 1.8. GCCGGACCGGCCAAACTGGTTTCTCCGCTC showed a binding signal (log2 normalized intensity) of -1.49. For GCTTCCCTAGCAACCTCCACATTGCAACAA, the binding signal (log2 normalized intensity) was -1.28. TACGTGACCTACTTAGTCTCCAGCCCCCAG gave a binding signal (log2 normalized intensity) of 4.08. For AAGACTTTATTTGAAGAAATGGTGGACTTT, the binding signal (log2 normalized intensity) was 6.77. Work on ACTTGACAAATGGGGCAGCTGGGGCCCAGG yielded a binding signal (log2 normalized intensity) of -1.32. In the case of GGCATCCCTGCCGTGGCTGGAACTCCTCCG, the binding signal (log2 normalized intensity) is reported as -1.27. Sequence TAGGACTCTAGTGTTCTCTTTGTGCTTTTT has a binding signal (log2 normalized intensity) of 1.72. TCTCAGGTGGGCAGAGGCCTGATGGTGAGT gave a binding signal (log2 normalized intensity) of -0.581. For TAACACCTGCCTTAGAAAGAGGGTGTAAGA, the binding signal (log2 normalized intensity) was -1.22. AGCTTTACTAAAACAGGGAGCAGGCAGATT gave a binding signal (log2 normalized intensity) of -1.4. Work on TTCAGCCAGATTCTCTCACTGCTCTGGCCA yielded a binding signal (log2 normalized intensity) of -1.42. CATGCCCCAGATGCCCAGCAGAGGGAGCCG showed a binding signal (log2 normalized intensity) of 1.74. TTGTTTTTGCTTGGAATGCCCTTATCTCAT showed a binding signal (log2 normalized intensity) of 2.32. With TAGCTGAGTTGACCTGTGTTGACAGATGAA the binding signal (log2 normalized intensity) was 2.65. Sequence GGGCTCCCGGACCCTGACTCTGCAGCCGAA has a binding signal (log2 normalized intensity) of -1.45. TGGAGAGCAGATGCTTCCCAGAAAGAATGA showed a binding signal (log2 normalized intensity) of -1.16. Sequence CCTGCTTCCAGGCTTGTACCTTGACCTTCT has a binding signal (log2 normalized intensity) of 7.46. For AGATCAAAGAGAAAGTAAGTGCACAGCCAG, the binding signal (log2 normalized intensity) was -1.11. For ATTCCAGTGTTTCAAAGGAGTGTCTTTCTC, the binding signal (log2 normalized intensity) was 1.51. CCTCTTTGCGGATAGATATGTTGAAGTGAC gave a binding signal (log2 normalized intensity) of 1.64. For CCCAGACCGCCATAACTCAGCGGGAGGCAA, the binding signal (log2 normalized intensity) was -1.15. For TGGCTGGCCATGAGTGAGCACTTAACAAAT, the binding signal (log2 normalized intensity) was -1.31. Work on CCAACGCCTCCCTCCTTCCGCGGACGTGTT yielded a binding signal (log2 normalized intensity) of 1.28. In the case of AAGAAACTCGTGGCATTTTTGCCCCTGCCC, the binding signal (log2 normalized intensity) is reported as 3.61. CTTCATCTGGAGACAAATGCTTTTGAACAC was tested, and the binding signal (log2 normalized intensity) was 0.438. Sequence TACCAGGCAGTCGTGATAGTGACCACCTGG has a binding signal (log2 normalized intensity) of 0.129. Work on CTATTCTGTAACACAGTTGCACTCACTAGC yielded a binding signal (log2 normalized intensity) of -1.31. Work on GTCCCTGGCCCCGGGGCGGGGGCGGGCTGG yielded a binding signal (log2 normalized intensity) of -0.21. TCATCCAAAGACTAATGCATTCCCAGCAAG showed a binding signal (log2 normalized intensity) of -1.27. TATGGATAGGCACATATTGGATCTCTGGTA showed a binding signal (log2 normalized intensity) of 1.23. In the case of CAAATTGGATGTTGAACCTCTGTCCTTGGC, the binding signal (log2 normalized intensity) is reported as 2.97. With AGGGCAAAAGGGCAAAACTGTCACAAGAAA the binding signal (log2 normalized intensity) was 2.11. Work on TACGCTGGGCAATAAGCATTCTGTTTCCTA yielded a binding signal (log2 normalized intensity) of -0.957. In the case of TGTTGGAGTTCTAAGAGCCTACTGAGAGGA, the binding signal (log2 normalized intensity) is reported as -1.38. AACACAGGTGACCTTTGCTCCGGTTCCCAA showed a binding signal (log2 normalized intensity) of 7.12. GAAGACTTCATGATAACACTTCCCAAGCAT was tested, and the binding signal (log2 normalized intensity) was -1.28. GCATCTTATCTGAATCTGGAATCACGTTCG showed a binding signal (log2 normalized intensity) of 1.16. GGCAGCCTTCGTTTGCTTTTCCTTATCATC showed a binding signal (log2 normalized intensity) of 0.201. For CTTGGCAAGGGGAGGCACTCATGGTGTTTG, the binding signal (log2 normalized intensity) was 0.519. With GATGTCTCTCATTGGAATGAGCCTCCTGAA the binding signal (log2 normalized intensity) was -0.287. Sequence GTCCAAAGTCTCAACTAAGTGTTATCTAAA has a binding signal (log2 normalized intensity) of 1.45. With GGTCTTCTAGAAACAACACACCTTGCCACC the binding signal (log2 normalized intensity) was -1.17. Sequence CTATTGTCCTATGACCCTGCCAAATCCCCC has a binding signal (log2 normalized intensity) of 4.75. Work on AGACAAGATATGAGGCCAGTTTTCCCAAAG yielded a binding signal (log2 normalized intensity) of -1.26. Sequence GCGGCATTCCTGTCAAAATCTGATCTTTCC has a binding signal (log2 normalized intensity) of 1.47. For GAACAATTATTGCCTGGCATCTAACCTTCG, the binding signal (log2 normalized intensity) was 1.54. Sequence TAGACAAATTTGTTTACTTCTGTCTCCAGA has a binding signal (log2 normalized intensity) of -0.614. For AGCATGGAGAAAATTCTGGACCTTCTTATC, the binding signal (log2 normalized intensity) was 1.59. GTAACATTCCTAGATATCAGGAAGGTCAGA gave a binding signal (log2 normalized intensity) of 1.88. TTCTCCAGCTGCTGTAAGGTTACTGAGGGC gave a binding signal (log2 normalized intensity) of 0.705. AGTCCAGACAAGTCCCAAGTATTTTCAGCC was tested, and the binding signal (log2 normalized intensity) was -1.21. In the case of CAAACGGATATTTGATCAAAGGTCAGCTCT, the binding signal (log2 normalized intensity) is reported as 5.82. For CATTGACTGAGATAGATAAGGCTGAGTGGA, the binding signal (log2 normalized intensity) was -0.956. TTGGATATCATATCATCTTCCCTGTTCAAA gave a binding signal (log2 normalized intensity) of 0.648. In the case of ATGGGACCTTTGCCCTTCTTGTTAACCTCC, the binding signal (log2 normalized intensity) is reported as 4.54. In the case of AAGGGGGCAAAGGGCATGGGCAGCTTTGAA, the binding signal (log2 normalized intensity) is reported as 5.12. TGAGGCAAGCAAAAGCCAAGGCATCTGGGG gave a binding signal (log2 normalized intensity) of -1.24. TCTGCTGAGTATCCAAAGGTCAGTGACAAA showed a binding signal (log2 normalized intensity) of 4.99. GTTTCCTAGTTCAAACAGGCCCTCCTCCTC was tested, and the binding signal (log2 normalized intensity) was 0.828. For GGGGGGTTGTTTTTAAAAGGCTGCCTTTCC, the binding signal (log2 normalized intensity) was 0.299. For GATACCATCAGATACCTACTCTGCTCTTCT, the binding signal (log2 normalized intensity) was -1.3. In the case of TAGAACACTTTCCACTCTCTACTGATATGT, the binding signal (log2 normalized intensity) is reported as 0.175. AGCCCTAAAGACCACTGGGCTTTCACAAGG showed a binding signal (log2 normalized intensity) of -1.24. With CTGACAGGATGAATTTATTGCCCTCAGGGT the binding signal (log2 normalized intensity) was 2.65. CCGTCACTGCAAGGCAAACACTCAAGGTCC was tested, and the binding signal (log2 normalized intensity) was -0.132. For GAGCACAGGGTCAGCAGATCTTTGTTAACA, the binding signal (log2 normalized intensity) was 0.456. Sequence TCAAAGGTGGAGATAACAAACTTGATTGGG has a binding signal (log2 normalized intensity) of -1.23. With AGTCTGTCTTGCTGTTTTTCCAGTTTTTGT the binding signal (log2 normalized intensity) was 1.55. Work on TGTTGACATCTTGATTTAGCCCAGTGAGAC yielded a binding signal (log2 normalized intensity) of 1.24. ATGGAACAAGCCAGGTGTGCAGAGAGCAAA showed a binding signal (log2 normalized intensity) of -1.38. TATCAGGGAGATAGTCTGAGAGTCACTGCC gave a binding signal (log2 normalized intensity) of -1.2. For CTCCTTCATCTTCAAAGCCAGCAATGGCAG, the binding signal (log2 normalized intensity) was -0.00164. In the case of CAGTTTGGACTTTGATCCTGATGACTGCAG, the binding signal (log2 normalized intensity) is reported as 8.17.
